Results: PubChem BioAssay AID504332 (National Center for Advancing Translational Sciences (NCATS), 2011)
Out of some 350,000 compounds screened, about 31,000 (8.9%) were called active. Inconclusive means that the source gave no clear call. Such entries were picked first, then a sample of the others. The call rests on the fitted dose curve; in most records, active means well fitted inhibition curve with a large enough effect; inconclusive means small, poorly fitted or top-dose-only effect; inactive means no such curve, though single readings can be large or run the other way. Potencies beside an inconclusive call are fits to weak or partial responses and may not hold up.

What follows are compounds tested against Histone-lysine N-methyltransferase EHMT2 (Homo sapiens) (UniProt Q96KQ7) (assay: qHTS Assay for Inhibitors of Histone Lysine Methyltransferase G9a). Details: G9a H3K9 monomethylation, AlphaScreen, 2 h; activity, negative = inhibition: at 59 µM (top of the series) unless noted.
UniProt Q96KQ7, sequence (Q96KQ7 whole entry, looked up): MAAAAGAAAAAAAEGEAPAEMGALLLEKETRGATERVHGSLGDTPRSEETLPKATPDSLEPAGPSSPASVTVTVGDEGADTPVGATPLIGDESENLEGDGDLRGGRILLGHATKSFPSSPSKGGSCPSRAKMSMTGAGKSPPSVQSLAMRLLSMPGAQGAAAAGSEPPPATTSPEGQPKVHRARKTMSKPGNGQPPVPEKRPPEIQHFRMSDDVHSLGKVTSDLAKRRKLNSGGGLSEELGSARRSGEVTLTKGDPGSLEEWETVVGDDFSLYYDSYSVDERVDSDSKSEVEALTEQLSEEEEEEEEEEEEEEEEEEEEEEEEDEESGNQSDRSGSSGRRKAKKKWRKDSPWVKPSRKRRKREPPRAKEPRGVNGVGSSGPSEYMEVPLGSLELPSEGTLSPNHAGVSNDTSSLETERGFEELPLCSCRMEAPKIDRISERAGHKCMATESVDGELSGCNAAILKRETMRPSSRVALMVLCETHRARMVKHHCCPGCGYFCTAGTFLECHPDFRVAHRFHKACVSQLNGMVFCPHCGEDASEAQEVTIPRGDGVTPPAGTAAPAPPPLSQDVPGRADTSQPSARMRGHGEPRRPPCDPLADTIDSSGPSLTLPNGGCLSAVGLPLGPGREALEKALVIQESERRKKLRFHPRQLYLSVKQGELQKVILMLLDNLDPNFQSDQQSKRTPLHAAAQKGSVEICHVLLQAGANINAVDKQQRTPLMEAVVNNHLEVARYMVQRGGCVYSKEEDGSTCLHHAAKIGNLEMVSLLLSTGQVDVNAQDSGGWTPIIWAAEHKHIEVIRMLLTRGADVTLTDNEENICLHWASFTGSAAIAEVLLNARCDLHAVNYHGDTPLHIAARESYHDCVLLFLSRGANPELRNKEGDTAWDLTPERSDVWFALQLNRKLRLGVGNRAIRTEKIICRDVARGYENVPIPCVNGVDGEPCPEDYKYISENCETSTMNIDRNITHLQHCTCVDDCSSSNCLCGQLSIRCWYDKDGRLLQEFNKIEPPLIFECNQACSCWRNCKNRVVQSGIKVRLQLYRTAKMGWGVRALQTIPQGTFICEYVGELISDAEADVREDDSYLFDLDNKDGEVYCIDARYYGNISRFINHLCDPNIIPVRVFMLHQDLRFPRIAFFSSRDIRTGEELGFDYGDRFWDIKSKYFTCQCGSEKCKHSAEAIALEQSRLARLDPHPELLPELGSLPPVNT
How it was run: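 Enzyme 20 nM + cpd, 15 min RT; add b-H3K9 pep 500 nM / SAM 20 uM; 2 h RT; anti-H3K9me1 Ab 0.5 ug/mL + SA donor / anti-rabbit acceptor beads 20 ug/mL each, 10 min; AlphaScreen read.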
Further: nearly all actives have a fitted effect of over 75% in size.
On the % scale 0 is the no-effect control and ±100 the full control effect; potency means the concentration at half of the fitted maximal effect; tags describe the fitted curve by direction and shape.

Row | SMILES | Potency | activity, negative = inhibition
1 | CCCCC(=O)Nc1cc(-c2nc3cccnc3s2)ccc1C | inconclusive: 7.94 µM [inhibitor, full curve] | 
2 | O=S(=O)(c1ccccc1)c1ccc(NCc2ccco2)cc1 |  | inactive: -12.9%
3 | CCOc1ccccc1N1CCN(C/C=C/c2ccc(N(C)C)cc2)CC1 | active: 10 µM | 
4 | COc1cccc2cc(C(=O)C3=C(O)C(=O)N(Cc4ccco4)C3c3cccnc3)oc12 (stereo not given) |  | inconclusive: -87.1% [inhibitor]
5 | Cc1sc(N)nc1-c1ccccc1 |  | inactive: -49.6% [at 102 µM]
6 | Cc1c(C)c2ccc(OCC(=O)N3CCC(C(=O)O)CC3)c(C)c2oc1=O |  | inactive: -7.73% [at 102 µM]
7 | CC(C)=CC[C@@H](O)C1=CC(=O)c2c(O)ccc(O)c2C1=O | active: 6.31 µM | 
8 | Cc1ccc2cc3cc(C(=O)N4CC(C)CC(C)C4)oc3nc2c1 (stereo not given) |  | inactive: 3.27%
9 | COCCSc1ccccc1C(=O)Nc1cc(C)on1 | active: 1.12 µM | 
10 | Cc1c(CCC(=O)O)c(=O)oc2c(C)c(OCc3ccccc3Cl)ccc12 | inconclusive: 89.1 µM [inhibitor, single point] | 
11 | CCOC(=O)C1(Cc2ccccc2)CCN(Cc2cccc(OC)c2O)CC1 | inconclusive: 89.1 µM [inhibitor, single point] | 
12 | Cn1c(=O)oc2cc(S(=O)(=O)N3CCCC(C(=O)NCc4ccccc4Cl)C3)ccc21 (stereo not given) |  | inactive: 5.48%
13 | Cc1ccc2c(c1)C(N1CCCC1=O)CC(c1ccco1)N2 (stereo not given) | active: 10 µM | 
14 | COC(=O)c1cc(Cl)cc(Cl)c1OS(=O)(=O)N(C)C |  | inactive: 36.4% [at 102 µM]
15 | O=C(COC(=O)CCc1nc2ccccc2c(=O)[nH]1)Nc1c(Cl)cccc1C(F)(F)F | inconclusive: 10 µM [inhibitor, partial curve, poor fit] | 
16 | CC(C)C[C@@H](C(=O)NC1CCN(Cc2ccccc2)CC1)N1C(=O)N2CCc3c([nH]c4ccccc34)[C@@]2(C)C1=O | inconclusive: 56.2 µM [inhibitor, partial curve, poor fit] | 
17 | c1cnc2c(SCc3ccc(-c4nnco4)cc3)cccc2c1 | inconclusive: 50.1 µM [inhibitor, partial curve, poor fit] | 
18 | O=C(CSc1nc2c([nH]c3ccccc32)c(=O)n1-c1ccc(F)cc1)NCC1CCCO1 (stereo not given) |  | inactive: -0.277%
19 | CCCCCOc1ccc(C(=O)Nc2ccc(N3CCOCC3)cc2N2CCOCC2)cc1 | active: 2 µM | 
20 | Cc1nc(NC(=O)CCl)sc1C(=O)N(C)C | inconclusive: 89.1 µM [inhibitor, partial curve, poor fit] | 
21 | Cc1ccc(C2C(=O)N(C3CCCCCC3)CC(=O)N2C(C)C)cc1 (stereo not given) |  | inactive: 3.71%
22 | COc1cccc(-n2c(SCC(=O)Nc3cccc(C)c3)nc3c([nH]c4ccccc43)c2=O)c1 |  | inactive: 5.73%
23 | Cc1cc(/C=C(\C#N)C(=O)NCc2ccco2)c(C)n1-c1cccnc1 | inconclusive: 89.1 µM [inhibitor, partial curve, poor fit] | 
24 | CC(C)c1ccc(Cc2cn3cc(-c4cc5ccccc5oc4=O)nc3s2)cc1 |  | inactive: 9.9%
25 | O=C(Nc1cc2c3c(c1)C1CCCC1CN3CC1CCCC21)c1ccc([N+](=O)[O-])cc1 (stereo not given) | active: 10 µM | 

Row | SMILES | Potency | activity, negative = inhibition
26 | O=C(NNc1ccc([N+](=O)[O-])cc1)c1ccccc1Cl | inconclusive: 79.4 µM [inhibitor, single point] | 
27 | CNS(=O)(=O)c1cccc(C(=O)OCCCC(=O)c2ccccc2)c1 |  | inactive: -6.99% [at 12.7 µM]
28 | CCc1ccc(N(C(=O)c2snc(C(N)=O)c2N)C(C(=O)NCC2CCCO2)c2ccco2)cc1 (stereo not given) |  | inactive: 1.42% [at 102 µM]
29 | CCn1c(NN)nc2sc3c(c2c1=O)CCC3 | active: 44.7 µM | 
30 | Cc1cc(NS(=O)(=O)c2ccc(NC(=O)Nc3ccc4c(c3)OCO4)cc2)no1 | inconclusive: 39.8 µM [inhibitor, single point] | 
31 | CN(C(=O)COC(=O)c1cc2c(s1)CCCCC2)C1CCS(=O)(=O)C1 (stereo not given) |  | inactive: 38.5% [at 102 µM]
32 | Cc1ccc(S(=O)(=O)N2CCCN(C(=O)CNC(=O)c3ccccc3)CC2)cc1 | inconclusive: 89.1 µM [inhibitor, partial curve, poor fit] | 
33 | O=C(Nc1ccc(N2CCCC2)cc1)c1cccc(Cl)c1 | inconclusive: 1.41 µM [inhibitor, single point] | 
34 | Cc1cccc(C(=O)NCC(=O)N2CC=C(c3ccccc3)CC2)c1 | inconclusive: 3.98 µM [inhibitor, single point] | 
35 | Cc1cccc(S(=O)(=O)c2cn(C)c3cc(N4CCCCCC4)c(F)cc3c2=O)c1 |  | inactive: 4.64%
36 | Cc1cccc(NC(=O)c2cc(CN3CCOCC3)on2)c1C |  | inactive: -0.579%
37 | O=C1CSC(c2ccccc2F)N1CCN1CCCCC1 (stereo not given) | active: 79.4 µM | 
38 | O=C(c1cccc(-n2cccc2)c1)N1CCN(S(=O)(=O)c2ccccc2Br)CC1 | active: 44.7 µM | 
39 | CCN(CC)C(=O)Cn1nc(-c2ccc(Cl)cc2)c2ccccc2c1=O |  | inactive: 1.58% [at 102 µM]
40 | COc1ccc(NC(=S)N(CCN(C)C)Cc2cccs2)cc1 |  | inactive: 10.5%
41 | CCN1CCN(C(=O)c2oc(=O)c3ccccc3c2-c2ccc(C)cc2)CC1 | inconclusive: 79.4 µM [inhibitor, single point] | 
42 | COc1ccc(-c2nc(SCC(=O)Nc3c(F)cccc3F)n[nH]2)cc1 | inconclusive: 22.4 µM [inhibitor, partial curve, poor fit] | 
43 | CCN1CCN(C(=O)c2ccc(Cl)c(S(=O)(=O)N3CCCCC3)c2)CC1 | inconclusive: 79.4 µM [inhibitor, single point] | 
44 | Cc1ccccc1C(=O)NC1CCN(CC(=O)NC2CCCCC2)CC1 |  | inactive: -2.26%
45 | Clc1ccc(-c2csc(-c3ccno3)n2)cc1 |  | inactive: -4.6%
46 | CN1CCN(c2oc(-c3ccccc3Cl)nc2S(=O)(=O)c2ccccc2)CC1 | inconclusive: 3.98 µM [inhibitor, full curve] | 
47 | C/C(=N\NC(=O)c1ccc(CSc2nc(C)cc(C)n2)cc1)c1ccco1 | inconclusive: 79.4 µM [inhibitor, single point] | 
48 | O=C(O/N=C\c1ccc(N2CCCCC2)c([N+](=O)[O-])c1)c1c(F)cccc1F | active: 14.1 µM | 
49 | O=C(NC1(C(F)(F)F)C(=O)Nc2c1c(=O)[nH]c(=O)n2Cc1ccccc1)c1ccc(Cl)cc1 (stereo not given) | inconclusive: 25.1 µM [inhibitor, single point] | 
50 | CCOc1ccc(N2C(=O)CC(Sc3nc(C)cc(C)c3C#N)C2=O)cc1 (stereo not given) | inconclusive: 44.7 µM [inhibitor, partial curve, poor fit] | 

Row | SMILES | Potency | activity, negative = inhibition
51 | O=C(CN1C(=O)C2(SCC(=O)N2c2ccccc2)c2ccccc21)Nc1ccccc1C(F)(F)F (stereo not given) |  | inactive: -5.97%
52 | NS(=O)(=O)c1ccc(NC(=S)NC2CCCCC2)cc1 | active: 25.1 µM | 
53 | CCOc1ccc(CCNC(=O)CN2C(=O)NC3(CCCc4ccccc43)C2=O)cc1OCC (stereo not given) | inconclusive: 89.1 µM [inhibitor, partial curve, poor fit] | 
54 | CCC(C)Nc1nc(-c2cccc(OC)c2O)nc2ccccc12 (stereo not given) |  | inactive: 9.07%
55 | O=C(CSc1nc2c([nH]c3ccccc32)c(=O)n1-c1ccccc1)NCc1ccc(F)cc1 |  | inactive: 7.05%
56 | Cc1noc(NS(=O)(=O)c2ccc(NC(=O)c3cnc4n(c3=O)CCS4)cc2)c1C | inconclusive: 35.5 µM [inhibitor, single point] | 
57 | CC(NC(=O)COc1ccccc1)C(=O)OCC(=O)c1cc2ccccc2o1 (stereo not given) | inconclusive: 22.4 µM [inhibitor, single point] | 
58 | Cc1nc(Nc2nc3ccccc3o2)nc2c1CCC2 | inconclusive: 0.631 µM [inhibitor, partial curve, poor fit] | 
59 | COc1cc(/C=N/O)ccc1OCc1ccc(C(=O)O)cc1 | inconclusive: 39.8 µM [inhibitor, single point] | 
60 | CCOc1cc(/C=N/Nc2nnc(C)n2N)ccc1O | active: 25.1 µM | 
61 | COc1cc(S(=O)(=O)N2CC(=O)Nc3ccccc32)ccc1NC(C)=O | active: 39.8 µM | 
62 | O=C(/C=C/c1ccc2c(c1)OCCCO2)c1ccccc1O | inconclusive: 25.1 µM [inhibitor, single point] | 
63 | O=C(CCC(=O)N1CCOCC1)Nc1ccc(Cl)c(Cl)c1 |  | inactive: 67.8% [at 102 µM]
64 | CCCCCC#CCC#CCC#CCC#CCCCC(=O)O | active: 10 µM | 
65 | Cn1cnnc1SCC(=O)c1cc2ccccc2oc1=O | inconclusive: 3.55 µM [inhibitor, single point] | 
66 | CCC(C)c1ccc(NC(=S)Nc2ccc(OC)cc2C)cc1 (stereo not given) | active: 4.47 µM | 
67 | O=C(/C=C/c1ccc(Cl)cc1)NC(=S)Nc1ccc(C(=O)O)cc1 | inconclusive: 79.4 µM [inhibitor, single point] | 
68 | O=C(COC(=O)c1cc([N+](=O)[O-])ccc1N1CCOCC1)c1ccccc1 | inconclusive: 44.7 µM [inhibitor, partial curve] | 
69 | Cc1cccn2c(=O)c(/C=C(\C#N)C(=O)NCc3ccco3)c(N3CCCCC3)nc12 | inconclusive: 15.8 µM [inhibitor, single point] | 
70 | CCc1ccc2c(c1)C(NC(C)=O)C(=O)N2CCN1CCOCC1 (stereo not given) | active: 28.2 µM | 
71 | COc1ccc(C(=O)c2cnc3ccc(C)cc3c2S(=O)(=O)c2ccccc2)cc1 | inconclusive: 17.8 µM [inhibitor, partial curve, poor fit] | 
72 | O=C(COC(=O)c1cncc(Br)c1)NCCC1=CCCCC1 | active: 50.1 µM | 
73 | O=C1CC(N2CCN(c3ccccn3)CC2)C(=O)N1CC(c1ccccc1)c1ccccc1 (stereo not given) | inconclusive: 39.8 µM [inhibitor, single point] | 
74 | Cc1sc2nc(N)sc2c1C | inconclusive: 31.6 µM [inhibitor, single point] | 
75 | Cc1cc2oc(C(=O)NC3CCS(=O)(=O)C3)c(C)c2cc1C (stereo not given) |  | inactive: 18.5% [at 12.7 µM]
